The campaign covered roughly 340,000 compounds. About 6,900 (2%) were called active. Cut-off read from the data, not from the text of the source: active = inhibition above about 30%; inactive = below that, where a call was filed. This is a selection; strong and weak results do not stand in their true shares. Where no call is shown, the source filed none.
target: D(2) dopamine receptor (Homo sapiens) (UniProt P14416); experiment: HTS Assay for Allosteric Antagonists of the Human D2 Dopamine Receptor: Primary Screen for Antagonists; settings: HEK293 TREx D2 cells, calcium flux, dopamine EC80; at 10 µM; stronger effect = higher value; note: 0% is about no effect
UniProt P14416, sequence (P14416 whole entry, looked up): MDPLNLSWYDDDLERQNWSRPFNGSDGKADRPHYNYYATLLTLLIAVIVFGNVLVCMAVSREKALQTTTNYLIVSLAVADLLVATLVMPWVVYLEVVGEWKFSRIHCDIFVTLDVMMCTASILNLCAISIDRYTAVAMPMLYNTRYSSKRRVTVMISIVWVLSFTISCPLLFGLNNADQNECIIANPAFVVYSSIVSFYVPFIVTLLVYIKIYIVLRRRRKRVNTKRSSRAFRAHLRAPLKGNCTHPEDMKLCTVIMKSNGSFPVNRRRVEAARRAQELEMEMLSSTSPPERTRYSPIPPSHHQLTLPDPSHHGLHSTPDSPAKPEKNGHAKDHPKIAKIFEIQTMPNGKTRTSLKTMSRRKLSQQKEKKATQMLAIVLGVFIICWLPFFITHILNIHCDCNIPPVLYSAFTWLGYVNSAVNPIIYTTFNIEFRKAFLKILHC
Procedure, shortened: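 Measurement of antagonist activity uses fluorescent calcium dye in inducible HEK293 T-REx D2 cells: 10 s baseline, compound addition with 180 s read, EC80 dopamine addition with a further 180 s read.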

Row | Structure (SMILES) | inhibition
1 | O=C(CN1C(=O)CCc2cc(S(=O)(=O)N3CCOCC3)ccc21)NCc1ccc(F)cc1 | -5.03%
2 | O=C(COc1ccccc1F)Nc1ccc(-c2nc3ccccc3s2)cc1 | -16%
3 | Cc1ccc(CNC(=O)c2ccc3c(c2)nc(C)n3-c2cc(C)cc(C)c2)cc1 | -6.68%
4 | COc1cccc(NC(=O)CNC(=O)Cn2c(C)cc3ccccc3c2=O)c1 | -9.7%
5 | Cc1ccc(N(CC(=O)NCCc2ccccc2)S(=O)(=O)N(C)C)cc1 | -9.92%
6 | CC(C(=O)N1CCc2ccccc21)N(C)CC(=O)Nc1cccc(F)c1 (stereo not given) | active: 38.9%
7 | N#Cc1ccccc1NC(=O)Cn1cnc2onc(-c3cccc(F)c3)c2c1=O | 2.74%
8 | CCCCOc1ccc(C(=O)Nc2ccc(-c3nc4ccccc4s3)cc2C)cc1 | -15.5%
9 | COc1cc(C)ccc1OCCSc1nc2ccc(NC(=O)c3ccc(F)cc3)cc2s1 | 9.43%
10 | CCC1CCCCN1CCCNC(=O)c1cc2c(Cl)nc3ccccc3c2s1 (stereo not given) | -5.56%
11 | Cc1ccc(C)n1-c1nnc(N2CCCC(C(=O)Nc3ccc(C(C)C)cc3)C2)s1 (stereo not given) | -6.51%
12 | COC(=O)c1ccccc1NC(=O)Cn1c(=O)n(Cc2ccc(C(=O)NCc3ccc4c(c3)OCO4)cc2)c(=O)c2ccccc21 | -19.7%
13 | CCOC(=O)c1c(C)oc2ncnc(Nc3ccc(OCC)cc3)c12 | -13%
14 | Cc1ccc(C)c(N2C(=O)N(Cc3cc(=O)n4ccccc4n3)c3ccccc3S2(=O)=O)c1 | 4.49%
15 | COc1cccc(Oc2nc(-c3ccccc3O)nc3ccccc23)c1 | active: 43.1%
16 | CCCn1c(-c2ccc(S(=O)(=O)N3CCOCC3)cc2)csc1=Nc1ccc(OCC)cc1 | -0.45%
17 | CC(C)Cn1c(=O)c2ccccc2n2c(CCC(=O)N3CCN(c4ccccc4F)CC3)nnc12 | -12.7%
18 | Cc1ccc2nc(-c3ccc(O)cc3)c(Nc3ccc4c(c3)OCCO4)n2c1 | 2.94%
19 | CCCSCCCNC(=O)C1CCN(c2nn3cc(-c4ccc(F)cc4)nc3s2)CC1 | 26.5%
20 | O=C(NCc1ccccc1Cl)C(=O)NCC(c1cccs1)S(=O)(=O)c1cccs1 (stereo not given) | -21.8%

Row | Structure (SMILES) | inhibition
21 | CCn1cc(C(=O)N2CCN(c3cccc(Cl)c3)CC2)c(=O)c2cc(S(=O)(=O)N3CCCCC3)ccc21 | 20.2%
22 | COc1ccc(OC)c(NC(=O)Cn2c(=O)n(Cc3ccccc3)c(=O)c3ccccc32)c1 | 5.83%
23 | COc1ccc(OC)c(NC(=O)N2CCN(S(=O)(=O)c3ccc4c(ccn4C)c3)CC2)c1 | -14.8%
24 | COc1ccc(C(CNC(=O)c2oc3ccc(C)cc3c2C)N2CCOCC2)cc1 (stereo not given) | 0.557%
25 | CCN1CCN(c2c(S(=O)(=O)c3ccc(OC)cc3)cnc3cc(OC)c(OC)cc23)CC1 | 3.1%
26 | Cc1c(C(=O)NCc2ccccc2Br)oc2c1-c1[nH]ncc1CC2 | 11%
27 | CCc1ccc(S(=O)(=O)c2nnn3c2nc(NC2CCCCCC2)c2sccc23)cc1 | 6.75%
28 | COc1cccc2c1Oc1ncccc1N(C(=O)Nc1ccc(F)c(Cl)c1)C2 | -0.823%
29 | CCOC(=O)C(CC)Sc1ccc2nnc(CCNS(=O)(=O)c3ccc(C)cc3)n2n1 (stereo not given) | -0.128%
30 | CCOCCCNC(=O)C1CCC(CNS(=O)(=O)c2ccc(NC(C)=O)cc2)CC1 (stereo not given) | -0.947%
31 | Cc1ccc(C)c(CN2C(=O)c3ccccc3S(=O)c3ccc(C(=O)NCc4ccccc4)cc32)c1 (stereo not given) | 1.83%
32 | COc1ccc(NC(=O)c2ccc(-c3nc(CSc4ccccc4)c(C)o3)cc2)cc1OC | -6.13%
33 | COc1cc(OC)c(C2=Nc3ccc(Br)cc3C(c3ccccc3)N2CC(=O)NN)cc1OC (stereo not given) | active: 78.5%
34 | COc1ccccc1Cc1nc2ccccc2[nH]c1=O | -3.2%
35 | Cc1cc(C)cc(NS(=O)(=O)c2ccc3c(c2)NC(=O)C(C)S3)c1 (stereo not given) | -3.31%
36 | CCn1c(C(=O)N2CCC(C(=O)NCCc3ccc(OC)cc3OC)CC2)cc2sccc21 | 6.46%
37 | CCOC(=O)c1c(C)oc2nc(C)nc(Nc3ccc(CC)cc3)c12 | 9.04%
38 | COc1ccc(NC(=O)C2CCC(=O)N2S(=O)(=O)c2ccc(C)cc2)cc1Cl (stereo not given) | active: 33.6%
39 | CCN(CC)CCNC(=O)c1ccc2c(c1)sc1nc(-c3ccc(F)cc3)cn12 | 0.322%
40 | CCCCSc1ncnc2c1c(-c1ccccc1)cn2-c1cccc(F)c1 | -5.4%

Row | Structure (SMILES) | inhibition
41 | CCN(CC)S(=O)(=O)c1nnc(NC(=O)COc2ccc(Cl)cc2)s1 | -22.9%
42 | CC(C)=N/N=c1\scc(C)n1Cc1ccco1 | active: 39.9%
43 | CC(=O)Nc1cc(NC(C)=O)cc(-c2nc3ccccc3[nH]2)c1 | 2.49%
44 | COc1ccc(C(CNC(=O)COc2ccc(Cl)c(C)c2)N2CCOCC2)cc1 (stereo not given) | 9.74%
45 | CCOC(=O)Cn1cnc2onc(-c3ccc(F)cc3)c2c1=O | -18.5%
46 | CCOC(=O)c1cc2c(=O)n3ccccc3nc2n(CCCOC)c1=NC(=O)C(C)Oc1ccccc1 (stereo not given) | 7.35%
47 | COc1ccc(CNC(=O)CN(c2ccccc2)S(=O)(=O)N(C)C)cc1 | 6.44%
48 | O=C(CSc1ncc(-c2ccc(F)cc2)n1Cc1ccco1)Nc1ccc2c(c1)OCO2 | active: 36.6%
49 | CC1CCN(C(=O)Cn2c(=O)oc3cc(S(=O)(=O)N4CCCCC4)ccc32)CC1 | 7.67%
50 | Cc1ccc(CNC(=O)c2ccc(Cn3c(SCc4ccccc4F)nc4cccnc43)cc2)cc1 | -0.457%
51 | CN(C)S(=O)(=O)c1ccc(C(=O)N2CC(=O)Nc3ccc(Br)cc3C2c2ccc(F)cc2)cc1 (stereo not given) | -14.4%
52 | CCOc1cc(CNc2ccc(O)cc2)ccc1OCc1ccc(Cl)cc1 | -8.22%
53 | CCN1CCN(c2c(S(=O)(=O)c3ccc(C)c(C)c3)cnc3cc(OC)c(OC)cc23)CC1 | 2.18%
54 | Cc1cccc(-n2c(=O)c3c4c(sc3n3cnnc23)CCCC4)c1 | -11.5%
55 | CCN(CC)C(=O)c1sc2c(c1C)c(=O)n(-c1ccccc1)c(=O)n2CC(=O)Nc1ccc(C)cc1C | 1.05%
56 | Cc1cc(C)cc(NC2=CC(c3cccc(F)c3)N(c3cc(C)cc(C)c3)C2=O)c1 (stereo not given) | -7.5%
57 | Cc1cc(=O)n(Cc2cccc(Cl)c2)c2c1c(C)nn2-c1ccccc1 | -6.42%
58 | CCCCC(CC)CNC(=O)CCCn1c(=O)[nH]c2ccsc2c1=O (stereo not given) | -13.8%
59 | COc1cc(-c2nc(Cn3nnc(C(=O)Nc4cc(C)cc(C)c4)c3C)c(C)o2)cc(OC)c1OC | -6.28%
60 | COc1ccc(C)cc1Nc1nc(-c2cccc(Cl)c2)c2c(n1)-c1ccccc1OC2 | 6.79%

— PubChem BioAssay AID485344 (National Center for Advancing Translational Sciences (NCATS), 2010)
